Reference: article PMC4336329 (PLoS ONE, 2015)
Out of some 310,000 compounds screened, about 2,200 (0.71%) showed an effect of 50% or more. The effect is printed as a negative number. This is one part of the list.

Target: human ether-à-go-go-related gene (hERG) potassium channel (human, UniProt Q12809)
Assay: primary screen, population patch clamp on CHO cells stably expressing hERG

human ether-à-go-go-related gene (hERG) potassium channel, sequence (Q12809 whole entry, looked up): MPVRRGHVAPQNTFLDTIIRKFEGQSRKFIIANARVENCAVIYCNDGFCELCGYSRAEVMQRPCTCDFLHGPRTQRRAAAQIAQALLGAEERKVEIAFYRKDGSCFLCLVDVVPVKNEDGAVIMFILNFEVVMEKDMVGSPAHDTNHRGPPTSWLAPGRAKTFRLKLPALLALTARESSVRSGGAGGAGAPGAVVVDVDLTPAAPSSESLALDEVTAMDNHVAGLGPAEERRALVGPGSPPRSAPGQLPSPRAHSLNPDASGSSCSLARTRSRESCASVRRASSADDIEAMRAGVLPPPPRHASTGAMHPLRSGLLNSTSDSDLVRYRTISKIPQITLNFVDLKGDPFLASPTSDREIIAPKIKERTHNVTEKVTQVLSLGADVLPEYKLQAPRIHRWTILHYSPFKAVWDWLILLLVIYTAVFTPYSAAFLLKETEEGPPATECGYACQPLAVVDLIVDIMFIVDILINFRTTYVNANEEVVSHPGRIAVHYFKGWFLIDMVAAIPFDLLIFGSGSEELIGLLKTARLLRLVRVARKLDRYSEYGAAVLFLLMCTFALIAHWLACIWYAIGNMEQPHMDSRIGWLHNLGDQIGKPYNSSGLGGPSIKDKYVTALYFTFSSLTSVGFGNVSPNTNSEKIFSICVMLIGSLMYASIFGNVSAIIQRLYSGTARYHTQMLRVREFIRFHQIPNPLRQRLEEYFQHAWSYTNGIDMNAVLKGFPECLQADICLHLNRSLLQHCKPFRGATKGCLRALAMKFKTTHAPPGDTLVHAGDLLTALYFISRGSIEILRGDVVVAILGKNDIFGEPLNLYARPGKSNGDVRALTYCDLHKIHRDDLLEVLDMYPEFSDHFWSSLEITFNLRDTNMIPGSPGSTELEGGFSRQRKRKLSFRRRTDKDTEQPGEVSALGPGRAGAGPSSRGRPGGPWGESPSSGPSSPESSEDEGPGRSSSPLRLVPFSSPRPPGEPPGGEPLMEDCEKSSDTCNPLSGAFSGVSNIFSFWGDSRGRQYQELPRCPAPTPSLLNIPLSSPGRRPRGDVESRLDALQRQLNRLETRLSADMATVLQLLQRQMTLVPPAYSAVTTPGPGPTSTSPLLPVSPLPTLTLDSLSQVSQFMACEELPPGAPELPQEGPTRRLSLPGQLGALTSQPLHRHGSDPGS

Structure (SMILES)	hERG current change (%, negative = inhibition) at 1uM [%]
Cc1cc(N/N=C/c2cccc([N+](=O)[O-])c2)nc(-n2nc(C)cc2C)n1	15.9
Cc1ccc(-c2nnc3ccc(SCC(=O)Nc4cc(C)on4)nn23)cc1	-12.8
O=S(=O)(c1ccccc1Br)N1CCN(c2ncccn2)CC1	9.03
Cc1nn(C)c(C(=O)Nc2c(C)nn(Cc3c(F)c(F)c(F)c(F)c3F)c2C)c1Br	8.56
Cc1ccc(OCC(=O)N/N=C\c2ccc(O)cc2)c([N+](=O)[O-])c1	25.6
O=C(Oc1ccc(-c2nnco2)cc1)N1CCOCC1	6.36
COc1cc(/C=N/NC(=O)CCN2CCN(C)CC2)cc2c1OCO2	10.6
O=c1ccc(S(=O)(=O)N2CCCC2)cn1Cc1nc(-c2ccccc2)no1	6.33
O=C(N/N=C/c1ccccc1[N+](=O)[O-])c1ccncc1	16.3
Cc1nn(-c2ccccc2)c(N2CCCC2)c1/C=N/NC(=S)Nc1cc(C(F)(F)F)ccc1Cl	12
CCn1ncc(C2=NOC(C(=O)Nc3cccc(O)c3)C2)c1C (stereo not drawn)	8.82
Nc1nnn(CC(=O)N/N=C/c2ccc(O)cc2)n1	15.6
Cc1ccc(S(=O)(=O)CCc2nnc(NC(=O)c3ccco3)s2)cc1	9.32
Cc1ccc2nc(-c3cccc(S(=O)(=O)N(C)C)c3)cn2c1	11.8
CCC(C(=O)O)n1c(C(F)(F)F)nc2ccccc21 (stereo not drawn)	-3.57
CCn1c2ccccc2c2cc(NC(=O)c3cccc([N+](=O)[O-])c3C)ccc21	10.5
CCC(=O)Nc1ccc(Cl)c(NC(=O)c2c(OC)cccc2OC)c1	10.5
COC(=O)c1cccc(N2C(=O)C3C4C=CC(CC4)C3C2=O)c1 (stereo not drawn)	16.9
CN(c1ccccc1)S(=O)(=O)c1cc(C(=O)NCCCn2ccnc2)ccc1Cl	0.127
C[C@@H](CSc1ccccc1)CN1CC[C@H](O)CCC1=O	13.7
NS(=O)(=O)c1ccc(CCNC(=O)c2cc(-c3ccc(Br)cc3)nc3ccccc23)cc1	15.6
Br.Cc1ccc(C(=O)CSc2nc3ccccc3o2)cc1	12.3
COC(=O)CCSCC(=O)Nc1ccc(C)c(S(=O)(=O)N2CCCCC2)c1	10.7
Cc1ccc(Cn2c(SCC(N)=O)nc3c2c(=O)n(C)c(=O)n3C)cc1	4.71
